# Source: the supplement of paper PMC8728848
# The other results are listed elsewhere or left out.
# Columns and labels:
# Assay in all cases: glycan array binding signal (z-score within array); higher = stronger binding
# Conditions in all cases: glycan notation: IUPAC condensed, linker removed
# [1] = target: Neu5Ac(a2-6)Gal(b1-4)GlcNAc(b1-2)Man(a1-3)[Neu5Ac(a2-3)Gal(b1-4)GlcNAc(b1-2)Man(a1-6)]Man(b1-4)GlcNAc(b1-4)GlcNAc
# In short: (§1)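 From the Consortium for Functional Glycomics database, 3228 arrays were curated, keeping only those whose protein sequence was available. Binding is given as a within-array Z-score averaged across arrays sharing a protein sequence and across linkers. Negative Z-scores can be read as non-binding.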
# [2] = target: Neu5Ac(a2-6)Gal(b1-4)GlcNAc(b1-2)Man(a1-3)[Neu5Ac(a2-6)Gal(b1-4)GlcNAc(b1-2)Man(a1-6)]Man(b1-4)GlcNAc(b1-4)GlcNAc
# In short: as §1
# [3] = target: Neu5Ac(a2-6)Gal(b1-4)GlcNAc(b1-2)Man(a1-3)[Neu5Ac(a2-6)Gal(b1-4)GlcNAc(b1-2)Man(a1-6)]Man(b1-4)GlcNAc(b1-4)[Fuc(a1-6)]GlcNAc
# In short: as §1
# [4] = target: Neu5Ac(a2-6)Gal(b1-4)GlcNAc(b1-2)Man(a1-6)Man(b1-4)GlcNAc(b1-4)GlcNAc
# In short: as §1
# [5] = target: Neu5Ac(a2-6)Gal(b1-4)GlcNAc(b1-2)Man(a1-6)[Gal(b1-4)GlcNAc(b1-2)Man(a1-3)]Man(b1-4)GlcNAc(b1-4)GlcNAc
# In short: as §1
# [6] = target: Neu5Ac(a2-6)Gal(b1-4)GlcNAc(b1-2)Man(a1-6)[GlcNAc(b1-2)Man(a1-3)]Man(b1-4)GlcNAc(b1-4)GlcNAc
# In short: as §1
# [7] = target: Neu5Ac(a2-6)Gal(b1-4)GlcNAc(b1-2)Man(a1-6)[Man(a1-3)]Man(b1-4)GlcNAc(b1-4)GlcNAc
# In short: as §1
# [8] = target: Neu5Ac(a2-6)Gal(b1-4)GlcNAc(b1-2)[Neu5Ac(a2-6)Gal(b1-4)GlcNAc(b1-4)]Man(a1-3)[GlcNAc(b1-4)][Neu5Ac(a2-6)Gal(b1-4)GlcNAc(b1-2)[Neu5Ac(a2-6)Gal(b1-4)GlcNAc(b1-6)]Man(a1-6)]Man(b1-4)GlcNAc(b1-4)GlcNAc
# In short: as §1
# [9] = target: Neu5Ac(a2-6)Gal(b1-4)GlcNAc(b1-2)[Neu5Ac(a2-6)Gal(b1-4)GlcNAc(b1-4)]Man(a1-3)[GlcNAc(b1-4)][Neu5Ac(a2-6)Gal(b1-4)GlcNAc(b1-4)Man(a1-6)]Man(b1-4)GlcNAc(b1-4)GlcNAc
# In short: as §1
# [10] = target: Neu5Ac(a2-6)Gal(b1-4)GlcNAc(b1-2)[Neu5Ac(a2-6)Gal(b1-4)GlcNAc(b1-6)]Man(a1-6)[Neu5Ac(a2-6)Gal(b1-4)GlcNAc(b1-2)Man(a1-3)][GlcNAc(b1-4)]Man(b1-4)GlcNAc(b1-4)GlcNAc
# In short: as §1
# [11] = target: Neu5Ac(a2-6)Gal(b1-4)GlcNAc(b1-3)Gal(b1-3)GlcNAc
# In short: as §1
# [12] = target: Neu5Ac(a2-6)Gal(b1-4)GlcNAc(b1-3)Gal(b1-4)GlcNAc
# In short: as §1
# [13] = target: Neu5Ac(a2-6)Gal(b1-4)GlcNAc(b1-3)Gal(b1-4)GlcNAc(b1-2)Man(a1-3)[Neu5Ac(a2-6)Gal(b1-4)GlcNAc(b1-3)Gal(b1-4)GlcNAc(b1-2)Man(a1-6)]GalNAc
# In short: as §1
# [14] = target: Neu5Ac(a2-6)Gal(b1-4)GlcNAc(b1-3)Gal(b1-4)GlcNAc(b1-3)Gal(b1-4)GlcNAc
# In short: as §1
# [15] = target: Neu5Ac(a2-6)Gal(b1-4)GlcNAc(b1-3)Gal(b1-4)GlcNAc(b1-3)Gal(b1-4)GlcNAc(b1-2)Man(a1-3)[Neu5Ac(a2-6)Gal(b1-4)GlcNAc(b1-3)Gal(b1-4)GlcNAc(b1-3)Gal(b1-4)GlcNAc(b1-2)Man(a1-6)]GalNAc
# In short: as §1
# [16] = target: Neu5Ac(a2-6)Gal(b1-4)GlcNAc(b1-3)Gal(b1-4)GlcNAc(b1-3)GalNAc
# In short: as §1
# [17] = target: Neu5Ac(a2-6)Gal(b1-4)GlcNAc(b1-3)Gal(b1-4)GlcNAc(b1-3)[Neu5Ac(a2-6)Gal(b1-4)GlcNAc(b1-3)Gal(b1-4)GlcNAc(b1-6)]GalNAc
# In short: as §1
# [18] = target: Neu5Ac(a2-6)Gal(b1-4)GlcNAc(b1-3)Gal(b1-4)GlcNAc(b1-6)[Gal(b1-3)]GalNAc
# In short: as §1
# [19] = target: Neu5Ac(a2-6)Gal(b1-4)GlcNAc(b1-3)Gal(b1-4)[Fuc(a1-3)]GlcNAc(b1-3)Gal(b1-4)[Fuc(a1-3)]GlcNAc
# In short: as §1
# [20] = target: Neu5Ac(a2-6)Gal(b1-4)GlcNAc(b1-3)GalNAc
# In short: as §1
# [21] = target: Neu5Ac(a2-6)Gal(b1-4)GlcNAc(b1-3)[Neu5Ac(a2-6)Gal(b1-4)GlcNAc(b1-6)]GalNAc
# In short: as §1
# [22] = target: Neu5Ac(a2-6)Gal(b1-4)GlcNAc(b1-6)GalNAc
# In short: as §1
# [23] = target: Neu5Ac(a2-6)Gal(b1-4)GlcNAc(b1-6)[Gal(b1-3)GlcNAc(b1-3)]Gal(b1-4)Glc
# In short: as §1
# [24] = target: Neu5Ac(a2-6)Gal(b1-4)GlcNAc(b1-6)[Gal(b1-3)]GalNAc
# In short: as §1
# [25] = target: Neu5Ac(a2-6)Gal(b1-4)GlcNAc6S
# In short: as §1
# [26] = target: Neu5Ac(a2-6)GalNAc
# In short: as §1
# [27] = target: Neu5Ac(a2-6)GalNAc(b1-4)GlcNAc
# In short: as §1
# [28] = target: Neu5Ac(a2-6)GalNAc(b1-4)GlcNAc6S
# In short: as §1
# [29] = target: Neu5Ac(a2-6)GlcNAc(b1-4)GlcNAc
# In short: as §1
# [30] = target: Neu5Ac(a2-6)GlcNAc(b1-4)GlcNAc(b1-4)GlcNAc
# In short: as §1
binder,measurement,setting,value
FliD (Clostridium difficile) (protein) MSSISPVRVTGLSGNFDMEGIIEASMIRDKEKVNKAKQDQQIVKWKQEIYRDIIKESKNLYDKYLNGDSPNSITNKKAYSATRITSSDESIIVAKGSAGAEKINYQFAVSQMAEPAKVTIKLNSSDPIVQQFPPNASGASSLNIGGVNIPISEQDTTSTIVSKINSLCADNDIRASYSEMTGELIISRKQTGSSSDIDLKVIGNDSLAGQIASDNGITFTTDASGTKSAVVYGKNLEADVTDDQGRVTHISKEQNSFKIDNIDYNVNSKGSAKLVSVTDTEEATKNMKAFVDDYNALMDKVYGLVTTKKSKDYPPLTDEQKDDMTTEEIEKWEKKAKEGILRNDDELRAFVEDIQSMFFGDADTIIALRKLGISEHENYNKKGQISFNADTFSKALIDDSDKVYKALAGYSSNYDDKGMFEKLKKIVFEYSGSSASKLTKKAGMENSSSASQNVYSKQIAEQERNISRLVEKMNDKEKRLYAKYSALESLLNKYSSQMNYFSQAQGN,glycan array binding signal (z-score),[1],-0.207
same,glycan array binding signal (z-score),[2],-0.145
same,glycan array binding signal (z-score),[3],0.021
same,glycan array binding signal (z-score),[4],-0.179
same,glycan array binding signal (z-score),[5],-0.169
same,glycan array binding signal (z-score),[6],-0.223
same,glycan array binding signal (z-score),[7],-0.197
same,glycan array binding signal (z-score),[8],-0.249
same,glycan array binding signal (z-score),[9],-0.074
same,glycan array binding signal (z-score),[10],-0.221
same,glycan array binding signal (z-score),[11],-0.263
same,glycan array binding signal (z-score),[12],-0.268
same,glycan array binding signal (z-score),[13],-0.063
same,glycan array binding signal (z-score),[14],-0.173
same,glycan array binding signal (z-score),[15],-0.008
same,glycan array binding signal (z-score),[16],-0.237
same,glycan array binding signal (z-score),[17],0.001
same,glycan array binding signal (z-score),[18],-0.161
same,glycan array binding signal (z-score),[19],-0.193
same,glycan array binding signal (z-score),[20],-0.097
same,glycan array binding signal (z-score),[21],-0.217
same,glycan array binding signal (z-score),[22],-0.021
same,glycan array binding signal (z-score),[23],0.276
same,glycan array binding signal (z-score),[24],-0.225
same,glycan array binding signal (z-score),[25],-0.203
same,glycan array binding signal (z-score),[26],-0.201
same,glycan array binding signal (z-score),[27],-0.25
same,glycan array binding signal (z-score),[28],0.312
same,glycan array binding signal (z-score),[29],-0.175
same,glycan array binding signal (z-score),[30],-0.261
